Assay results from patent US4447445A (priority 1983, dated 1984).

How the values were obtained:
mice [1] = settings: mouse, in vivo
mice [2] = test: animal or person; settings: for ED50: Mus musculus, sc, 0.5 h
Experimental: Test compound is injected subcutaneously into mice. After 30 minutes, phenylquinone is injected intra-peritoneally to cause pain as indicated by writhing. Absence of or a statistically significant decrease in writhing is considered evidence of analgesia [Hendershot, L. C. and G. Forsaith, Pharmacol. Exp. Ther. 125, 237 (1959)].

[3] = test system: PMA induced inflammation of mouse ears; test: PMA Mouse Ear Anti-Inflammatory Assay; type: in vivo; settings: Table I dose response studies
Experimental: Test compound and phorbol myristate acetate (PMA) or arachidonic acid (ARA) are topically applied simultaneously to the left ears of mice. Three hours 20 minutes (or one hour for ARA) after application, the mouse is sacrificed, left and right ears removed and standard sized bores taken. Edema (inflammation) is measured as the difference in weight between left and right ears [Van Arman, C. G., Clin. Pharmacol. Ther. 16, 900-904 (1974)].

## C[C@]12CCC(=O)C=C1CC[C@@H]1[C@@H]2[C@@H](O)C[C@@]2(C)[C@H]1CC[C@]2(O)C(=O)CO [Hydrocortisone, hydrocortisone, reference compound]
Mice [1]
  Blood Analysis wbc, figure in brackets (difference to control): +71.0
  Blood Analysis wbc, mean: 2850
  Body Weight day 0, figure in brackets (difference to control): +1.1
  Body Weight day 0, mean: 18.1 g
  Body Weight day 7, figure in brackets (difference to control): -13.2
  Body Weight day 7, mean: 22.3 g
  Food Consumption, figure in brackets (difference to control): +13.6
  Food Consumption, mean: 6.69
  H2 O Consumption, figure in brackets (difference to control): +21.0
  H2 O Consumption, mean: 9.8
  Organ Wts Adrenal, figure in brackets (difference to control): -20.9
  Organ Wts Adrenal, mean: 11.01
  Organ Wts Heart, figure in brackets (difference to control): +32.4
  Organ Wts Heart, mean: 0.56
  Organ Wts Kidney, figure in brackets (difference to control): 15.8
  Organ Wts Kidney, mean: 1.63
  Organ Wts Liver, mean: 5.67
  Organ Wts Spleen, figure in brackets (difference to control): -63.8
  Organ Wts Spleen, mean: 0.17
  Organ Wts Testes, figure in brackets (difference to control): +18.1
  Organ Wts Testes, mean: 0.62
  Organ Wts Thymus, figure in brackets (difference to control): -81.6
  Organ Wts Thymus, mean: 0.08
  effect on adrenal gland weight: reduction of adrenal gland, spleen weights and body weight
  effect on body weight: reduction of adrenal gland, spleen weights and body weight
  effect on spleen: reduction of adrenal gland, spleen weights and body weight
  effect on thymus weight and size: expected thymus involution
  increase in white blood cell count over control: did not

## CC1=C(CC/C(C)=C/CCC2=CCC(C3=CC(=O)OC3O)OC2O)C(C)(C)CCC1 (centres unmarked) [Manoalide]
Mice [1]
  Acute Inflamation with PMA, figure in brackets (difference to control): +14.8
  Acute Inflamation with PMA, mean: 15.5 mg
  Blood Analysis wbc, figure in brackets (difference to control): +381.4
  Blood Analysis wbc, mean: 8025
  Body Weight day 0, figure in brackets (difference to control): +2.2
  Body Weight day 0, mean: 18.3 g
  Body Weight day 7, figure in brackets (difference to control): +2.3
  Body Weight day 7, mean: 26.3 g
  Eight day administration: glucocorticoid (steroid-like) properties: no glucocorticoid
  Eight day administration: toxicity (remark): Non-toxic
  Food Consumption, figure in brackets (difference to control): -7.1
  Food Consumption, mean: 5.47
  H2 O Consumption, figure in brackets (difference to control): -25.7
  H2 O Consumption, mean: 6.1 ml/mouse/day
  Organ Wts Adrenal, figure in brackets (difference to control): +32.3
  Organ Wts Adrenal, mean: 18.41
  Organ Wts Heart, figure in brackets (difference to control): -17.7
  Organ Wts Heart, mean: 0.35
  Organ Wts Kidney, figure in brackets (difference to control): -9.2
  Organ Wts Kidney, mean: 1.28
  Organ Wts Liver, figure in brackets (difference to control): +8.9
  Organ Wts Liver, mean: 6.32
  Organ Wts Spleen, figure in brackets (difference to control): +71.7
  Organ Wts Spleen, mean: 0.83
  Organ Wts Testes, figure in brackets (difference to control): -6.5
  Organ Wts Testes, mean: 0.49
  Organ Wts Thymus, figure in brackets (difference to control): -18.4
  Organ Wts Thymus, mean: 0.37
  effect on adrenal gland weight: did not alter adrenal gland weight
  effect on body weight: grew to normal body weight
  effect on spleen: markedly enlarged the spleen
  effect on thymus weight and size: only slightly decreased thymus weight and size
  healing of injection wound sites (acutely immunosuppressive): injection wound sites did not heal
  increase in white blood cell count over control: 400%
Mice [2]; read-out: Analgesia (Phenylquinone Writhing) ED50
  ED50: 40 mg/kg
Mice [2]; read-out: ED50 (analgesia)
  ED50: ~40 mg/kg
Mice [2]; mouse, in vivo
  time of peak analgesic effect after administration: about two
[3]
  PMA - Mouse Ear Anti-inflammatory ED50: 40 microgram/ear

## COc1ccc2c(c1)c(CC(=O)O)c(C)n2C(=O)c1ccc(Cl)cc1 [Indomethacin, indomethacin, reference compound]
Mice [2]; read-out: ED50 (analgesia)
  ED50: ~5 mg/kg

## CN1CC[C@]23c4c5ccc(O)c4O[C@H]2[C@@H](O)C=C[C@H]3[C@H]1C5 [morphine, reference compound]
Mice [2]; read-out: ED50 (analgesia)
  ED50: ~0.6 mg/kg

Where two headings read alike, the source gives them in different places.
